Test results: the supplement of paper PMC6531468
The list shows a part of the results. These are enrichments in a pooled selection; single values are uncertain. Each score is taken over the longer molecules that contain the sequence shown.

test system: IMP3 RRM1-2; assay: 6-mer SELEX enrichment z-score vs GST control; IMP3 is the RNA-binding protein IGF2BP3; higher = more enriched by binding; details: construct: RRM1-2 (1-163); SELEX round: R2
Procedure: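 SELEX-seq with GST-tagged IMP3 RRM1-2 (Met1-Asn163) and an N40 RNA pool, round 2. 6-mer enrichment z-score normalised to GST SELEX. RNA written as DNA (T = U).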

Chain of IMP3 RRM1-2 (chain, as listed by the source): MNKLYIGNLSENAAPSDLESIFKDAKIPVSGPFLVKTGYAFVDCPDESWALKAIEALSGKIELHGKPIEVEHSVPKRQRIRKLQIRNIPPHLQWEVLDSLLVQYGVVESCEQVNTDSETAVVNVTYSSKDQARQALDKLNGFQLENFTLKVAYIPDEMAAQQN

Sequence	6-mer SELEX enrichment z-score
TTTCGT	0.401
GGCCAG	-0.217
CCGACG	-0.979
CGGCCG	-0.067
CAGATC	0.716
ACGGCC	-0.252
GCGAGC	0.02
TGATCG	-0.152
CTCTAC	0.112
CAGCTA	0.274
GGGAAC	-0.376
ATCCCT	-0.186
TGCGGC	0.306
ATGGCC	-0.169
GGCTCA	0.559
AGTTTA	0.054
AGCAAA	-0.08
TTACTA	0.24
GCTGGA	-0.187
CTGGCC	-0.18

Sequence	6-mer SELEX enrichment z-score
CCTGAT	-0.34
CGACTG	-0.547
TGGCTC	0.501
GACAGG	-0.339
GCGAAG	-0.596
TGACGT	-0.356
TCGGAA	-0.386
AGCCCG	-0.781
AGCCGT	-0.312
ACGACA	-0.081
CCTTTA	-0.157
CCATGA	-0.324
AATAAA	-1.95
AACTAC	-0.54
ACGCGC	-0.159
GTAGGC	0.228
TTCCTG	0.074
ACGGTA	-0.148
AATTAG	-0.296
CGTCCG	0.056

biological target: IMP3 full-length (UniProt O00425); assay: as above; details: construct: FL IMP3 (1-579); SELEX round: R4
Chain of UniProt O00425 (O00425 whole entry): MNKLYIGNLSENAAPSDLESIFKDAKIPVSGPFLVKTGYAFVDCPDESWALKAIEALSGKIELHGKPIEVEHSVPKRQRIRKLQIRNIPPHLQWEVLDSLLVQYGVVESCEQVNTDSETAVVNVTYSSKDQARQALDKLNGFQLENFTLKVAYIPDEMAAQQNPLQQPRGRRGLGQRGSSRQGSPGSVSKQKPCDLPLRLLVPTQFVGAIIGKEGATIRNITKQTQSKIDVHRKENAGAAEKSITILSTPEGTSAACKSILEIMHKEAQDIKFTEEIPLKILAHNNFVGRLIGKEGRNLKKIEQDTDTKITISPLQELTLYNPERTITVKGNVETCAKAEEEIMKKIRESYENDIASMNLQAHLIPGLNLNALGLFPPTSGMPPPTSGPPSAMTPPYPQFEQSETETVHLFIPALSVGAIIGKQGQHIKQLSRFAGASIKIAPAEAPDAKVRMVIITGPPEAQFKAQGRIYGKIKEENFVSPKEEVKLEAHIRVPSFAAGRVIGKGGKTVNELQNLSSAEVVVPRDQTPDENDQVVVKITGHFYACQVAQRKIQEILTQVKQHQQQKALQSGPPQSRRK
Procedure: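 SELEX-seq with GST-tagged full-length IMP3 and an N40 RNA pool, round 4. Each 6-mer is scored as an enrichment z-score of sequence tags containing it, normalised to the matching GST SELEX round. RNA written as DNA (T = U).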

Sequence	6-mer SELEX enrichment z-score
TTTCGT	0.161
GGCCAG	1.11
CCGACG	-1.07
CGGCCG	1.43
CAGATC	0.731
ACGGCC	1.41
GCGAGC	0.17
TGATCG	-0.051
CTCTAC	-0.28
CAGCTA	0.175
GGGAAC	-0.044
ATCCCT	-0.444
TGCGGC	1.34
ATGGCC	0.371
GGCTCA	0.873
AGTTTA	-0.178
AGCAAA	-0.329
TTACTA	0.012
GCTGGA	0.165
CTGGCC	0.207

Sequence	6-mer SELEX enrichment z-score
CCTGAT	-0.72
CGACTG	-0.722
TGGCTC	0.356
GACAGG	0.893
GCGAAG	-0.557
TGACGT	-0.474
TCGGAA	-0.088
AGCCCG	-0.492
AGCCGT	-0.236
ACGACA	0.667
CCTTTA	-0.206
CCATGA	-0.406
AATAAA	-0.869
AACTAC	-0.592
ACGCGC	-0.014
GTAGGC	0.378
TTCCTG	-0.324
ACGGTA	-0.175
AATTAG	-0.199
CGTCCG	0.393

test system: IMP3 KH1-2; assay: as above; details: construct: KH1-2 (164-376); SELEX round: R4
Sequence (chain, as listed by the source): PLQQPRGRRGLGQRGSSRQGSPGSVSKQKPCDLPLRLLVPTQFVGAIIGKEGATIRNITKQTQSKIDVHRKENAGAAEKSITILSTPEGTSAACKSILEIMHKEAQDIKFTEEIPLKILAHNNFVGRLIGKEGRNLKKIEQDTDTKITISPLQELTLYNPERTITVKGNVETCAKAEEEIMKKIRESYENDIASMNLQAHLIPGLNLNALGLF
Procedure: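 SELEX-seq with GST-tagged IMP3 KH1-2 (Pro164-Phe376) and an N40 RNA pool, round 4 (stringent 300/600 mM KCl washes). 6-mer z-score of sequence-tag enrichment normalised to the corresponding GST SELEX round; RNA k-mers written as DNA (T for U).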

Sequence	6-mer SELEX enrichment z-score
TTTCGT	0.173
GGCCAG	0.882
CCGACG	-1.93
CGGCCG	0.797
CAGATC	0.162
ACGGCC	1.07
GCGAGC	-1.65
TGATCG	-0.266
CTCTAC	-0.163
CAGCTA	-0.088
GGGAAC	0.045
ATCCCT	-0.068
TGCGGC	0.728
ATGGCC	0.482
GGCTCA	0.243
AGTTTA	-0.007
AGCAAA	-0.722
TTACTA	1.01
GCTGGA	0.211
CTGGCC	0.069

Sequence	6-mer SELEX enrichment z-score
CCTGAT	-0.359
CGACTG	-0.771
TGGCTC	-0.016
GACAGG	1.01
GCGAAG	-0.867
TGACGT	-0.81
TCGGAA	-0.242
AGCCCG	-1.03
AGCCGT	-0.846
ACGACA	0.022
CCTTTA	0.6
CCATGA	-0.302
AATAAA	1.69
AACTAC	0.748
ACGCGC	-0.789
GTAGGC	-0.031
TTCCTG	0.17
ACGGTA	-0.509
AATTAG	0.464
CGTCCG	-0.522
